Measurements: PubChem BioAssay AID1508623 (National Center for Advancing Translational Sciences (NCATS), 2021)
In all, about 48,000 compounds went through this assay and about 450 (0.94%) were called active. Not shown: some 19% with an inconclusive outcome. Calls come from the whole dose curve; as a rule, active = well fitted inhibition curve with a large enough effect; inconclusive = small, poorly fitted or top-dose-only effect; inactive = no such curve, though single readings can be large or run the other way. The list shows a part of the results.

Experiment: Primary qHTS for Identification of Small Molecule Inhibitors of Huntingtin Promoter Activity; note: nearly all actives have a fitted effect of over 50% in size
Settings: HEK293 HTT promoter firefly luciferase reporter (activity 0% = vehicle and -100% = no light), 24 h; series mostly up to 57.5 µM; activity change, negative = inhibition: at the top concentration
How it was run: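 Luminescence was read after Dual-Glo reagent and a 10 min room-temperature incubation. Values were normalized to vehicle (0% activity) and zero RLU (-100% activity). Reporter HEK293 cells had been exposed to compounds (up to 57.5 uM final) for 24 h.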

Activity change, negative = inhibition, inactive:
Cc1nc2n(c(=O)c1CCN1CCC(c3noc4cc(F)ccc34)CC1)CCCC2
O=C(Nc1ccc(F)cc1F)C1CCN(S(=O)(=O)c2ccc3[nH]c(=O)ccc3c2)CC1 -10.8%
CCc1ccc(NC(=O)Cn2nnc(C(=O)NCc3ccc(C)cc3)c2N)cc1 -2.05%
CCc1ccc(OCc2nc(-c3ccc(OC)c(OC)c3)no2)c(Br)c1 -21.3%
CC(=O)c1ccc(N2C(=O)N(Cc3ccccc3C#N)c3ccccc3S2(=O)=O)cc1 -20.7%
CCOc1ccc(C(=O)NCC(c2ccc3c(c2)OCO3)N2CCOCC2)cc1 (centres undefined) -15.3%
Cc1c(C(=O)Nc2ccc(F)c(Cl)c2)oc2ccc(S(=O)(=O)N(C)C3CCCCC3)cc12 -12%
Cc1ccc(-n2ncc(C(=O)Nc3ccc4c(c3)OCO4)c2C2CCN(C(=O)OC(C)(C)C)CC2)c(C)c1 -10.9%
COc1cc(-c2noc(-c3ccc(NCc4ccco4)c([N+](=O)[O-])c3)n2)cc(OC)c1OC -0.0884%
CCOC(=O)c1nc(Nc2ccccc2OC)c2ccccc2n1 -22%
Cc1cn2c(=O)cc(COc3ccc(NC(=O)c4ccccc4C)cc3)nc2s1 -3.83%
CCCCN(CC)C(=O)c1cc2c(=O)n3ccccc3nc2n1C 30.2%
COc1cc2[nH]c(=O)n(Cc3ccc(C(=O)N4CCN(c5cc(Cl)ccc5C)CC4)cc3)c(=O)c2cc1OC -7.98%
O=C(NCC(c1ccc2c(c1)OCO2)N1CCOCC1)C(=O)Nc1ccc(F)cc1F (centres undefined) 10.9%
O=C(Cn1cnc2c(oc3ccccc32)c1=O)Nc1ccc(OC(F)(F)F)cc1 0.986%
CC(=O)Nc1ccc(CC(=O)O)cc1 -13.4%
O=C(Nc1cccc(Cl)c1)N1CCC(CN2CCOCC2)CC1 -13.6%
O=C(CN1C(=O)CC(c2ccco2)Sc2ccccc21)Nc1ccc(C(F)(F)F)cc1 (centres undefined) -12.7%
Cc1cccc(CCNC(=O)c2cnc3c(C)cccn3c2=O)c1 37.8%
CC(C)(C)c1ccc(S(=O)(=O)c2cn(CC(=O)Nc3ccccc3)c3ccccc3c2=O)cc1 -28.3%
COc1ccccc1CNC(=O)Cc1csc2nc(-c3ccccc3)cn12 8.41%
Cc1ccc(CNC(=O)c2ccc3c(c2)N(Cc2ccccc2)C(=O)c2ccccc2S3(=O)=O)cc1 -13.8%
COC(=O)C1CCN(CC(=O)Nc2cc(C)c3c(=O)oc4ccccc4c3n2)CC1 -0.626%
O=C(CCC1N=C2c3ccccc3N=C(SCc3ccccc3F)N2C1=O)NCCc1ccccc1 (centres undefined) -13.3%
Cc1cc(C)c(NC(=O)Cn2ccn(-c3cccc(Cl)c3)c(=O)c2=O)c(C)c1 -19.2%
CCOC(=O)c1ccc(NC(=O)c2c(C)nn(-c3ccc(F)cc3)c2-n2cccc2)cc1 -14.3%
Cc1ccc2c(c1)N(C(=O)C1CCN(S(=O)(=O)c3c(C)noc3/C=C/c3ccccc3F)CC1)CCO2 -34.9%
COc1ccc(CNC(=O)CCNS(=O)(=O)c2cccc3nsnc23)cc1 -4.99%
COc1ccc(OC)c(CNC(=O)Cn2nc(C)c3nn(-c4ccc(Cl)cc4)c(C)c3c2=O)c1 -23.2%
COc1ccc2oc(=O)c(-c3cn4c(n3)sc3cc(OC)ccc34)cc2c1 -4.78%
CCc1ccccc1NC(=O)Nc1nnc(N(C)Cc2ccccc2)s1 -31.2%
Clc1ccc(N2CCN(c3ncnc4c3cnn4-c3ccccc3)CC2)cc1Cl 7.8%
COc1ccc(NC(=O)c2cc3nc(-c4ccc(Cl)c(Cl)c4)cc(C(F)(F)F)n3n2)c(OC)c1 3.29%
Cc1sc2ncn(CC(=O)Nc3ccc(F)cc3F)c(=O)c2c1S(=O)(=O)N1CCC(C)CC1 -27.8%
CCOc1ccccc1NC(=O)N1CCC(n2c(C)nc3cccnc32)CC1 0%
Cc1c(-c2nnc(SCC(=O)Nc3ccccc3F)o2)nnn1-c1ccc(F)cc1 66.5%
COc1ccc(C(=O)NC2CC(=O)N(c3ccc4c(c3)OCCO4)C2)cc1 (centres undefined) -7.83%
COc1cccc(N2CCN(S(=O)(=O)c3cn(C)c(C)n3)CC2)c1 -3.16%
C[C@H]1[C@H](NC(=O)/C(=N/OC(C)(C)C(=O)O)c2csc(N)n2)C(=O)N1S(=O)(=O)O (stereo in doubt) 14.5%
CC(=O)N1CCc2cc(S(=O)(=O)NC(CC(C)C)C(=O)Nc3ccc(C(C)C)cc3)ccc21 (centres undefined) -19.4%
CC(=O)N1c2ccc(S(=O)(=O)N3CCCCCC3)cc2CC1C(=O)NC(C)C (centres undefined) -0.509%
CCOC(=O)N1CCc2c(sc3c2c(=O)n(Cc2ccccc2)c(=O)n3Cc2cc(C)ccc2C)C1 -3.92%
CC(C)CC(=O)Nc1nc2c(s1)CC(C(C)(C)C)CC2 (centres undefined) 35%
CCc1nn(CCCC(=O)N2CCN(c3cc(Cl)ccc3C)CC2)c(=O)c2cc3occc3n12 -20.2%
COc1ccc(CC(=O)NC2CC(=O)N(c3cccc(F)c3)C2)cc1OC (centres undefined) -5.7%
CCOC(=O)c1c(C)n(S(=O)(=O)c2ccc(C)cc2C)c2ccc(NS(=O)(=O)c3ccc(C)cc3C)cc12 -32%
COc1ccccc1Nc1sc(C(=O)c2ccc3c(c2)OCO3)c(N)c1S(=O)(=O)c1ccccc1 -22.2%
Cc1ccc(C2=Nc3ccccc3N(CC(=O)Nc3ccccc3F)C(=O)C2)cc1C 23.2%
O=C(Nc1cccc(Cl)c1)c1ccc2nc(CCc3ccccc3)oc2c1 -3.96%
CCCn1c2ccccc2c2cnn(CC(=O)NCc3ccccc3Cl)c(=O)c21 -15.5%
CCN(CC)CCCNC(=O)Cc1ccc(NC(=O)N2CCCCc3ccccc32)cc1 -8.39%
O=c1oc2ccccc2cc1-c1nnc(Nc2ccc(Cl)cc2Cl)s1 13.9%
Cc1ccc(-c2nc3cc(Cl)ccc3o2)cc1NC(=O)c1cc([N+](=O)[O-])ccc1N1CCOCC1 -4.93%
CC(=O)NC1CC(=O)N(c2ccc3c(c2)OCCO3)C1 (centres undefined) 7.56%
Cc1nc(-c2ccccc2)sc1-c1ccc(SCC(=O)Nc2cccc(C(F)(F)F)c2)nn1 5.85%
CCC(=O)N1CCc2cc(Br)cc(S(=O)(=O)N3CCC(C(=O)Nc4ccccc4CC)CC3)c21 14.3%
COc1ccc2nc(NC(=O)Nc3ccccc3)sc2c1 20.3%
COc1cc(OC)c(NC(=O)C2CCN(C(=O)c3sc4nc[nH]c(=O)c4c3C)CC2)cc1Cl -13.5%
COCCCNC(=O)c1cnc2c(-c3ccc(F)cc3)c(C)nn2c1C -11.3%
CCOC(=O)C1CCN(C(c2cccc(F)c2)c2c(O)cc(C)n(Cc3ccco3)c2=O)CC1 (centres undefined) -7.33%
CCN1CC(CCN2CCOCC2)C(c2ccccc2)(c2ccccc2)C1=O (centres undefined) 2.71%
CCOc1cccc(C(=O)N2CCC(c3nc4ccccc4s3)CC2)c1 -4.86% [at 11.5 µM]
COc1ccc(-c2noc(N(c3cccc(Cl)c3)c3nc(-c4ccc(OC)c(OC)c4)no3)n2)cc1OC -12.8%
O=C(c1ccc(Br)cc1)N1CCN(CCc2ccncc2)CC1 -16.6%
CCOc1ccc(-c2nc(SCC(=O)c3ccccc3)n[nH]2)cc1 -2.42%
CC(=O)c1ccc(NC(=O)CSc2ccc(-c3cccs3)nn2)cc1 14.2%
CN(C)c1ccc(CNC(=O)c2cnc3sc(N4CCOCC4)nn3c2=O)cc1 3.53%
Brc1cccc(-c2nnc(CN3CCN(c4ccccn4)CC3)o2)c1 -11.4%
Cc1ccc(S(=O)(=O)Cc2ccc(C(=O)NCCc3ccc(Cl)cc3)o2)cc1 -24%
Cc1cc(C)nc(NC(=NCCc2c[nH]c3ccc(Cl)cc23)NC(=O)c2ccccc2C)n1 -24.8%
COC(=O)C1=C(C)NC(=O)C1(NC(=O)c1cc(OC)c(OC)c(OC)c1)C(F)(F)F (centres undefined) -3.26%
C=Cc1ccc(Cn2nc(-c3ccc(C)cc3)ccc2=O)cc1 -21%
O=C(NC1CCCCC1)c1ccc(CSc2nc3cccnc3n2Cc2ccc(F)cc2)cc1 2.2%
O=C(c1cc(O)c(O)c(O)c1)c1ccc(O)c(O)c1O -0.375%
COc1ccc(OC)c(NC(=O)C2CCN(S(=O)(=O)c3ccc4c(c3)CCCC(=O)N4)CC2)c1 -12.3%
CCOC(=O)c1ccc(NC(=O)CCC(=O)N2Cc3ccccc3Oc3ncccc32)cc1 -29.7%
O=C1CC(c2nnc(Cc3ccc(F)cc3Cl)o2)CN1c1ccccc1 (centres undefined) -19.1%
O=C(CN1C(=O)COc2ccc(S(=O)(=O)N3CCCC3)cc21)N1CCN(c2ccc(F)cc2)CC1 -14.4%
O=C1c2[nH]nc(-c3ccccc3O)c2C(c2ccccc2F)N1Cc1cccnc1 (centres undefined) -27.7%
COCCNc1ccc(-c2nc(-c3ccco3)no2)cc1[N+](=O)[O-] 39.7%
COc1ccc(S(=O)(=O)NCC(c2ccco2)N2CCN(c3ccccc3)CC2)cc1OC (centres undefined) -29.6%
Cc1[nH]c(=O)[nH]c(=O)c1S(=O)(=O)N1CCN(c2ccccc2Cl)CC1 -14.2%
O=C(O)CCn1c(=O)c2cccn2c2cccnc21 -17.9%
N#Cc1ccccc1Cn1c(=O)n(-c2cccc(C(F)(F)F)c2)c(=O)c2sccc21 -17%
COc1ccccc1NC(=O)c1sc2nc(C)c(C(=O)Nc3ccc(C)cc3C)c(-c3cccs3)c2c1N -19.8%
CCOc1cc2[nH]c(=O)n(CCCCC(=O)N3CCN(c4cccc(Cl)c4)CC3)c(=O)c2cc1OCC -26.7%
Cc1cccc2sc(N(Cc3cccnc3)C(=O)c3cccs3)nc12 -12.7%
CCc1ccc(CN2CCc3nc(Nc4ccccc4)ncc3C2)cc1 -24.7%
CCOC(=O)c1c(C)[nH]c(CCC(=O)NCc2ccc(F)cc2)c1C -7.46%
CC(=O)Nc1ccc(NC(=O)c2cc3sccc3n2Cc2ccc(F)cc2)cc1 -13%
CC(C)(C)C1CCc2c(sc3nc(-c4cc5cc(Br)ccc5oc4=O)[nH]c(=O)c23)C1 (centres undefined) -10.6%
CCOC(=O)c1ccc(OC(=O)CCCCCN=C(N)N)cc1
Cc1cccc(NC(=O)c2oc3ccccc3c2NC(=O)c2cc(=O)c3cc(Cl)ccc3o2)c1 17.4%
COc1ccccc1C(=O)Nc1c(C(=O)N(C)c2ccccc2)sc2nc(C)cc(C)c12 -6.25%
